Measured values reported in the supplement of paper PMC3334620.
In all, about 33,000 sequences were measured (“E-score (-0.5 to 0.5)”: median about -0.041, highest 2% from about 0.37 on). The list shows a part of the results.

Each sequence was assayed against T1, Ecm22 (UniProt Q05958) (assay: PBM E-score (8-mer binding enrichment) (E-score (-0.5 to 0.5)); higher = stronger / more preferred TF binding; most listed sequences are background and not binding sites). Conditions: protein concentration: 200 nM; construct: GST-full length.
T1 sequence: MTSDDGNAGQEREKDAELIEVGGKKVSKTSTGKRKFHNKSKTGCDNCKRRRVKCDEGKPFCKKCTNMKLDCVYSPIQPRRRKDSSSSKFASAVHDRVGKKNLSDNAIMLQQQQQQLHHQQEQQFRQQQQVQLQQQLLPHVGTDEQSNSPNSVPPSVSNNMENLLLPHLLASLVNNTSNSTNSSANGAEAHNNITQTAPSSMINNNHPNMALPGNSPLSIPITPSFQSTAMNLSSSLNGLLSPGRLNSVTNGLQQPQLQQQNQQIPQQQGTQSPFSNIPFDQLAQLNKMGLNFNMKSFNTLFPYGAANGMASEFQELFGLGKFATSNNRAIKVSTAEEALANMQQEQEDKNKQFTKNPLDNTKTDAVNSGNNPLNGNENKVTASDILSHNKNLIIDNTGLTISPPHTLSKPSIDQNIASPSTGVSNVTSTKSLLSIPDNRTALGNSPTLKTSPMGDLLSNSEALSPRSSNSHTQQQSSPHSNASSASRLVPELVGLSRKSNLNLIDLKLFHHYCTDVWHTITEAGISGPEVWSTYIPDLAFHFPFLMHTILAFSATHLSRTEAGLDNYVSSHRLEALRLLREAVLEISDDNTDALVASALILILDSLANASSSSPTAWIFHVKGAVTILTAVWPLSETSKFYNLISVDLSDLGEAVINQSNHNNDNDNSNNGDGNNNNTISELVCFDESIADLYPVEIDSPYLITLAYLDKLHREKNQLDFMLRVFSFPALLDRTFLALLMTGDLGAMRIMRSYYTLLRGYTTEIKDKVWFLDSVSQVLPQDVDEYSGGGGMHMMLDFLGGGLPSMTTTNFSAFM
Summary of the method: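 PURExpress in vitro transcription/translation supplied GST-tagged yeast transcription factors, either full-length or DNA-binding domain. Applied at about 100-200 nM to universal all-10-mer Agilent arrays double-stranded by primer extension, the bound protein was detected with fluorescent anti-GST. E-scores, modified Wilcoxon-Mann-Whitney statistics, were given by the Universal PBM Analysis Suite to ungapped eight-base words pooled with their reverse complements after masliner normalisation.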

Sequence	PBM E-score
CGGCTCAC	-0.0852
CGCGAGCC	0.272
CCGGGGAA	-0.2
AATGGAAA	-0.198
GCAGAGAA	-0.192
GCCGGTCC	-0.285
GATTATAA	0.16
ACTGGTCA	-0.0474
ATTGAGAG	-0.0594
AGCGGTAC	0.254
AAAGGATA	-0.00559
AAGGGCAT	-0.348
AATCACAA	-0.0516
AGTCCGAT	0.0155
GTCTCAAC	-0.168
CAGTGCGA	0.0878
CCGAAGCC	-0.156
AGCTGATG	-0.106
CCGGACTC	-0.0304
CAGTACAG	-0.0162
GCCCAACA	-0.108
AATTAGTC	0.0876

Sequence	PBM E-score
AATCCCCT	-0.182
CAGGCTTC	-0.0197
ATCCTAGA	-0.176
AGGGTACG	0.411
ACAGTAGA	-0.0321
CAGTAGGG	-0.255
ATAGTCGG	-0.0281
GGCGCGGA	-0.192
AGTGTGAC	-0.0932
ACGTCCCC	-0.144
ATGCGACC	0.288
CGACTACC	0.0502
GCATCCAA	-0.237
ATGGTTAA	-0.122
CTTGTTAC	-0.105
AAGGCCTT	-0.158
CCGTCGCA	0.205
CAATACGG	0.0307
CATTCGGG	-0.102
AGCAAGTG	-0.181
CATGAAGG	-0.217
AATTTATA	0.238

Sequence	PBM E-score
CCGTCTCA	-0.234
GCGCGTCA	0.00517
ACTAGCTC	0.124
ATTGGAGG	-0.197
ATCACCTC	-0.0728
GTAGGGGA	-0.206
GAATAAAC	0.0513
ATGCCAAT	-0.168
AGCGTCCC	-0.145
ACGCGACT	0.0359
ACGAGGAA	0.375
GCGTGGTA	0.0874
AAGCAGAG	-0.175
ACTCCTGC	0.0512
GCAGACCA	-0.16
ATCTCGGG	0.114
GCACTTTA	-0.0321
ACGCGACA	0.15
CATCTTAG	-0.0868
GTTTACCA	0.147
ATCGATAG	0.00897
AAGAGGGG	-0.0791

Sequence	PBM E-score
CCGCGTCG	0.135
GCTTTAAA	-0.0882
GATAATAC	0.0704
ACGCAGGA	0.108
AATGTAAG	0.0738
ATACATAT	0.173
ACCCAATA	-0.139
AGCGCTGC	-0.158
ATAACATG	-0.0341
CAACACAA	0.0316
ACGCCCTG	-0.0148
CATGCGCA	-0.0944
GCGCGGCC	-0.114
AATGGGCT	-0.198
TGGGGTAA	0.0699
AACCGGAA	0.237
CCGACGCA	0.00712
ACGAAATC	0.285
GAACATGC	0.00051
AATTCAAT	0.0725
